Measured values reported in the supplement of paper PMC8728848.
The other results are listed elsewhere or left out.

Key:
Assay in all cases: glycan array binding signal (z-score within array); higher = stronger binding
Details in all cases: glycan notation: IUPAC condensed, linker removed
[1] = molecular target: Gal(b1-4)GlcNAc(b1-3)Gal(b1-4)GlcNAc(b1-6)[Gal(b1-3)]GalNAc
Procedure, shortened: (§1)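 Columns mapping to the same glycan were averaged after glycan names were converted to IUPAC-condensed notation. The data come from 3228 arrays in the Consortium for Functional Glycomics database, limited to those with an available protein sequence. Binding is reported as a within-array Z-score averaged across arrays of one protein sequence and across linkers.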

[2] = molecular target: Gal(b1-4)GlcNAc(b1-3)Gal(b1-4)[Fuc(a1-3)]GlcNAc(b1-3)Gal(b1-4)[Fuc(a1-3)]GlcNAc
Procedure, shortened: as §1

[3] = molecular target: Gal(b1-4)GlcNAc(b1-3)GalNAc
Procedure, shortened: as §1

[4] = molecular target: Gal(b1-4)GlcNAc(b1-3)[Fuc(a1-3)GlcNAc(b1-6)]Gal(b1-4)Glc
Procedure, shortened: as §1

[5] = molecular target: Gal(b1-4)GlcNAc(b1-3)[Gal(b1-4)GlcNAc(b1-6)]Gal(b1-4)GlcNAc
Procedure, shortened: as §1

[6] = molecular target: Gal(b1-4)GlcNAc(b1-3)[GlcNAc(b1-6)]Gal(b1-4)GlcNAc
Procedure, shortened: as §1

[7] = molecular target: Gal(b1-4)GlcNAc(b1-6)Gal(b1-4)GlcNAc
Procedure, shortened: as §1

[8] = molecular target: Gal(b1-4)GlcNAc(b1-6)GalNAc
Procedure, shortened: as §1

[9] = molecular target: Gal(b1-4)GlcNAc(b1-6)[Gal(b1-3)]GalNAc
Procedure, shortened: as §1

[10] = molecular target: Gal(b1-4)GlcNAc(b1-6)[Gal(b1-4)GlcNAc(b1-3)]GalNAc
Procedure, shortened: as §1

Gal(b1-4)GlcNAc6P = molecular target: Gal(b1-4)GlcNAc6P
Procedure, shortened: as §1

Gal(b1-6)Gal = molecular target: Gal(b1-6)Gal
Procedure, shortened: as §1

Gal3S(b1-3)GalNAc = molecular target: Gal3S(b1-3)GalNAc
Procedure, shortened: as §1

Gal3S(b1-3)GlcNAc = molecular target: Gal3S(b1-3)GlcNAc
Procedure, shortened: as §1

[11] = molecular target: Gal3S(b1-3)[Fuc(a1-4)]GlcNAc
Procedure, shortened: as §1

Gal3S(b1-4)Glc = molecular target: Gal3S(b1-4)Glc
Procedure, shortened: as §1

Gal3S(b1-4)Glc6S = molecular target: Gal3S(b1-4)Glc6S
Procedure, shortened: as §1

Gal3S(b1-4)GlcNAc = molecular target: Gal3S(b1-4)GlcNAc
Procedure, shortened: as §1

[12] = molecular target: Gal3S(b1-4)[Fuc(a1-3)]Glc6S
Procedure, shortened: as §1

[13] = molecular target: Gal3S(b1-4)[Fuc(a1-3)]GlcNAc
Procedure, shortened: as §1

[14] = molecular target: Gal3S(b1-4)[Fuc(a1-3)]GlcNAc6S
Procedure, shortened: as §1

Gal3S4S(b1-4)GlcNAc = molecular target: Gal3S4S(b1-4)GlcNAc
Procedure, shortened: as §1

Gal3S6S(b1-4)GlcNAc = molecular target: Gal3S6S(b1-4)GlcNAc
Procedure, shortened: as §1

Gal3S6S(b1-4)GlcNAc6S = molecular target: Gal3S6S(b1-4)GlcNAc6S
Procedure, shortened: as §1

Gal4S(b1-4)GlcNAc = molecular target: Gal4S(b1-4)GlcNAc
Procedure, shortened: as §1

Gal4S6S(b1-4)GlcNAc = molecular target: Gal4S6S(b1-4)GlcNAc
Procedure, shortened: as §1

Gal6P(b1-4)GlcNAc = molecular target: Gal6P(b1-4)GlcNAc
Procedure, shortened: as §1

Gal6S(b1-3)GlcNAc = molecular target: Gal6S(b1-3)GlcNAc
Procedure, shortened: as §1

Gal6S(b1-3)GlcNAc6S = molecular target: Gal6S(b1-3)GlcNAc6S
Procedure, shortened: as §1

Gal6S(b1-4)Glc = molecular target: Gal6S(b1-4)Glc
Procedure, shortened: as §1

Gal6S(b1-4)Glc6S = molecular target: Gal6S(b1-4)Glc6S
Procedure, shortened: as §1

Gal6S(b1-4)GlcNAc = molecular target: Gal6S(b1-4)GlcNAc
Procedure, shortened: as §1

Gal6S(b1-4)GlcNAc6S = molecular target: Gal6S(b1-4)GlcNAc6S
Procedure, shortened: as §1

GalNAc(a1-3)Gal = molecular target: GalNAc(a1-3)Gal
Procedure, shortened: as §1

GalNAc(a1-3)GalNAc = molecular target: GalNAc(a1-3)GalNAc
Procedure, shortened: as §1

[15] = molecular target: GalNAc(a1-3)GalNAc(b1-3)Gal(a1-4)Gal(b1-4)Glc
Procedure, shortened: as §1

[16] = molecular target: GalNAc(a1-3)GalNAc(b1-3)Gal(a1-4)Gal(b1-4)GlcNAc
Procedure, shortened: as §1

B1: Si Bti9 1b-V5-his (Solanum lycopersicum) (protein)
chain: MQCNRGCDLALASFYVWRGSNLTLISEMFSTSIADIVSYNNRDNIPNQDSVIAGTRINIPFRCDCLNDGEVLGHAFPYRVKSGDTYDLVARNYSDLTTAQWMMKFNSYPENNIPNTVNLSVVVNCSCGNSDVSKDFGLFVTYPVRAEDNLTSVASAANVSEDIIRRYNPAAVSILDIGQGIIYIPGRDRNGNFPPLPTSTDGLSGGAKKGGRADPAFLYKVVINSKLEGKPIPNPLLGLDSTRTGHHHHHH
- glycan array binding signal (z-score) [1]: -0.04
- glycan array binding signal (z-score) [2]: -0.264
- glycan array binding signal (z-score) [3]: -0.258
- glycan array binding signal (z-score) [4]: -0.305
- glycan array binding signal (z-score) [5]: -0.26
- glycan array binding signal (z-score) [6]: -0.082
- glycan array binding signal (z-score) [7]: -0.272
- glycan array binding signal (z-score) [8]: 2.79
- glycan array binding signal (z-score) [9]: -0.243
- glycan array binding signal (z-score) [10]: 0.584
- glycan array binding signal (z-score) (Gal(b1-4)GlcNAc6P): -0.289
- glycan array binding signal (z-score) (Gal(b1-6)Gal): -0.242
- glycan array binding signal (z-score) (Gal3S(b1-3)GalNAc): 0.177
- glycan array binding signal (z-score) (Gal3S(b1-3)GlcNAc): -0.08
- glycan array binding signal (z-score) [11]: -0.213
- glycan array binding signal (z-score) (Gal3S(b1-4)Glc): 1.61
- glycan array binding signal (z-score) (Gal3S(b1-4)Glc6S): 0.754
- glycan array binding signal (z-score) (Gal3S(b1-4)GlcNAc): 0.09
- glycan array binding signal (z-score) [12]: 0.443
- glycan array binding signal (z-score) [13]: -0.345
- glycan array binding signal (z-score) [14]: 1.04
- glycan array binding signal (z-score) (Gal3S4S(b1-4)GlcNAc): -0.283
- glycan array binding signal (z-score) (Gal3S6S(b1-4)GlcNAc): 0.103
- glycan array binding signal (z-score) (Gal3S6S(b1-4)GlcNAc6S): 0.163
- glycan array binding signal (z-score) (Gal4S(b1-4)GlcNAc): -0.307
- glycan array binding signal (z-score) (Gal4S6S(b1-4)GlcNAc): -0.191
- glycan array binding signal (z-score) (Gal6P(b1-4)GlcNAc): -0.317
- glycan array binding signal (z-score) (Gal6S(b1-3)GlcNAc): -0.294
- glycan array binding signal (z-score) (Gal6S(b1-3)GlcNAc6S): -0.167
- glycan array binding signal (z-score) (Gal6S(b1-4)Glc): -0.149
- glycan array binding signal (z-score) (Gal6S(b1-4)Glc6S): 0.068
- glycan array binding signal (z-score) (Gal6S(b1-4)GlcNAc): -0.119
- glycan array binding signal (z-score) (Gal6S(b1-4)GlcNAc6S): -0.235
- glycan array binding signal (z-score) (GalNAc(a1-3)Gal): -0.318
- glycan array binding signal (z-score) (GalNAc(a1-3)GalNAc): -0.039
- glycan array binding signal (z-score) [15]: -0.423
- glycan array binding signal (z-score) [16]: -0.346
